# According to PMC12820563, “FoxP3 forms a head-to-head dimer in vivo and stabilizes its multimerization on adjacent microsatellites”:
# The list shows a part of the results.
# Target: T1, MBP-FoxP1dN (Mus musculus, UniProt P58462 326-579)
# T1 sequence: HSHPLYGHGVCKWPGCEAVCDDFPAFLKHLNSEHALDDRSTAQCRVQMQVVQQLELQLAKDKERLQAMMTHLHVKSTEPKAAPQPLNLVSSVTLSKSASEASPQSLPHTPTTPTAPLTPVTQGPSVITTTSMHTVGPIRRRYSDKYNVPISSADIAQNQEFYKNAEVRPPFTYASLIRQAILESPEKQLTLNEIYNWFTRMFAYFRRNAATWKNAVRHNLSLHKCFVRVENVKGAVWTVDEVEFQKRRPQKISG
# Experiment: PD-seq (MBP pull-down with sequencing); 20 mM Tris-HCl pH 7.5, 100 mM NaCl, 1.5 mM MgCl2, 0.4 uM protein, 0.1 uM dsDNA library, 30 min, room temperature, amylose pull-down; high values mean tight binding
# Details: protein: recombinant; tags: His6-MBP; chain copies: 2; dsDNA, one strand shown
# Procedure, shortened: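 Binding is the reads-per-million enrichment of pull-down relative to input, pooled across replicates. For this, 0.4 µM His6-MBP-tagged mouse FoxP3 or FoxP1 fragment lacking the N-terminus, made in E. coli, was incubated with 0.1 µM Klenow-filled double-stranded degenerate DNA library for 30 min at room temperature in Tris pH 7.5 buffer with NaCl and MgCl2. Complexes bound to amylose resin were washed three times before proteinase K released the DNA for PCR barcoding and Illumina sequencing.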
row,Sequence,binding signal
1,GATGATTGTTCTCCCAGCTGATGAATTGCACGCATCGAGTAAACAAATTTTCCTAATCTTTCTGTTCAAGCGCCATCTAC,1.37 RPM ratio (pull-down/input)
2,GATGATTGTTCTCCCAGCTGATGAATTAATACAGTCGAGTAAACAAATTTTCCTAATCTTTCTGTTCAAGCGCCATCTAC,0.993 RPM ratio (pull-down/input)
3,GATGATTGTTCTCCCAGCTGATGAATTTACAGATTCGAGTAAACAAATTTTCCTAATCTTTCTGTTCAAGCGCCATCTAC,1.22 RPM ratio (pull-down/input)
4,GATGATTGTTCTCCCAGCTGATGAATTCCTCAGTTCGAGTAAACAAATTTTCCTAATCTTTCTGTTCAAGCGCCATCTAC,0.81 RPM ratio (pull-down/input)
5,GATGATTGTTCTCCCAGCTGATGAATTGCTAGCCTCGAGTAAACAAATTTTCCTAATCTTTCTGTTCAAGCGCCATCTAC,1 RPM ratio (pull-down/input)
6,GATGATTGTTCTCCCAGCTGATGAATTACGCTTATCGAGTAAACAAATTTTCCTAATCTTTCTGTTCAAGCGCCATCTAC,1.16 RPM ratio (pull-down/input)
7,GATGATTGTTCTCCCAGCTGATGAATTCCATTGGTCGAGTAAACAAATTTTCCTAATCTTTCTGTTCAAGCGCCATCTAC,0.762 RPM ratio (pull-down/input)
8,GATGATTGTTCTCCCAGCTGATGAATTGACCAAGTCGAGTAAACAAATTTTCCTAATCTTTCTGTTCAAGCGCCATCTAC,0.87 RPM ratio (pull-down/input)
9,GATGATTGTTCTCCCAGCTGATGAATTCATTTATTCGAGTAAACAAATTTTCCTAATCTTTCTGTTCAAGCGCCATCTAC,1.01 RPM ratio (pull-down/input)
10,GATGATTGTTCTCCCAGCTGATGAATTTGCGGTGTCGAGTAAACAAATTTTCCTAATCTTTCTGTTCAAGCGCCATCTAC,0.989 RPM ratio (pull-down/input)
11,GATGATTGTTCTCCCAGCTGATGAATTCTATCCGTCGAGTAAACAAATTTTCCTAATCTTTCTGTTCAAGCGCCATCTAC,0.9 RPM ratio (pull-down/input)
12,GATGATTGTTCTCCCAGCTGATGAATTATCCGTCTCGAGTAAACAAATTTTCCTAATCTTTCTGTTCAAGCGCCATCTAC,0.857 RPM ratio (pull-down/input)
13,GATGATTGTTCTCCCAGCTGATGAATTAAAGGCCTCGAGTAAACAAATTTTCCTAATCTTTCTGTTCAAGCGCCATCTAC,0.877 RPM ratio (pull-down/input)
14,GATGATTGTTCTCCCAGCTGATGAATTCAGCATCTCGAGTAAACAAATTTTCCTAATCTTTCTGTTCAAGCGCCATCTAC,1.08 RPM ratio (pull-down/input)
15,GATGATTGTTCTCCCAGCTGATGAATTCGAAGGATCGAGTAAACAAATTTTCCTAATCTTTCTGTTCAAGCGCCATCTAC,0.845 RPM ratio (pull-down/input)
16,GATGATTGTTCTCCCAGCTGATGAATTCATACCATCGAGTAAACAAATTTTCCTAATCTTTCTGTTCAAGCGCCATCTAC,0.999 RPM ratio (pull-down/input)
17,GATGATTGTTCTCCCAGCTGATGAATTCGCTACGTCGAGTAAACAAATTTTCCTAATCTTTCTGTTCAAGCGCCATCTAC,0.968 RPM ratio (pull-down/input)
18,GATGATTGTTCTCCCAGCTGATGAATTTACAGTGTCGAGTAAACAAATTTTCCTAATCTTTCTGTTCAAGCGCCATCTAC,1.24 RPM ratio (pull-down/input)
19,GATGATTGTTCTCCCAGCTGATGAATTTTAAGTTTCGAGTAAACAAATTTTCCTAATCTTTCTGTTCAAGCGCCATCTAC,0.926 RPM ratio (pull-down/input)
20,GATGATTGTTCTCCCAGCTGATGAATTTGAAGCTTCGAGTAAACAAATTTTCCTAATCTTTCTGTTCAAGCGCCATCTAC,0.899 RPM ratio (pull-down/input)
21,GATGATTGTTCTCCCAGCTGATGAATTATGTATCTCGAGTAAACAAATTTTCCTAATCTTTCTGTTCAAGCGCCATCTAC,1.45 RPM ratio (pull-down/input)

row,Sequence,binding signal
1,GATGATTGTTCTCCCAGCTGATGAATTTGTGATGTCGAGTAAACAAATTTTCCTAATCTTTCTGTTCAAGCGCCATCTAC,1.47 RPM ratio (pull-down/input)
2,GATGATTGTTCTCCCAGCTGATGAATTACCCGCTTCGAGTAAACAAATTTTCCTAATCTTTCTGTTCAAGCGCCATCTAC,0.968 RPM ratio (pull-down/input)
3,GATGATTGTTCTCCCAGCTGATGAATTGAACCGCTCGAGTAAACAAATTTTCCTAATCTTTCTGTTCAAGCGCCATCTAC,0.819 RPM ratio (pull-down/input)
4,GATGATTGTTCTCCCAGCTGATGAATTGTTCCAGTCGAGTAAACAAATTTTCCTAATCTTTCTGTTCAAGCGCCATCTAC,1.03 RPM ratio (pull-down/input)
5,GATGATTGTTCTCCCAGCTGATGAATTGGTTCTGTCGAGTAAACAAATTTTCCTAATCTTTCTGTTCAAGCGCCATCTAC,0.898 RPM ratio (pull-down/input)
6,GATGATTGTTCTCCCAGCTGATGAATTAAACAGGTCGAGTAAACAAATTTTCCTAATCTTTCTGTTCAAGCGCCATCTAC,1.21 RPM ratio (pull-down/input)
7,GATGATTGTTCTCCCAGCTGATGAATTAGTTTGCTCGAGTAAACAAATTTTCCTAATCTTTCTGTTCAAGCGCCATCTAC,1.03 RPM ratio (pull-down/input)
8,GATGATTGTTCTCCCAGCTGATGAATTAGTTAGATCGAGTAAACAAATTTTCCTAATCTTTCTGTTCAAGCGCCATCTAC,0.984 RPM ratio (pull-down/input)
9,GATGATTGTTCTCCCAGCTGATGAATTTGTGAGATCGAGTAAACAAATTTTCCTAATCTTTCTGTTCAAGCGCCATCTAC,0.937 RPM ratio (pull-down/input)
10,GATGATTGTTCTCCCAGCTGATGAATTTAAATCCTCGAGTAAACAAATTTTCCTAATCTTTCTGTTCAAGCGCCATCTAC,0.844 RPM ratio (pull-down/input)
11,GATGATTGTTCTCCCAGCTGATGAATTACCCCCCTCGAGTAAACAAATTTTCCTAATCTTTCTGTTCAAGCGCCATCTAC,0.93 RPM ratio (pull-down/input)
12,GATGATTGTTCTCCCAGCTGATGAATTCACGTTATCGAGTAAACAAATTTTCCTAATCTTTCTGTTCAAGCGCCATCTAC,1.12 RPM ratio (pull-down/input)
13,GATGATTGTTCTCCCAGCTGATGAATTGGCTGAATCGAGTAAACAAATTTTCCTAATCTTTCTGTTCAAGCGCCATCTAC,0.911 RPM ratio (pull-down/input)
14,GATGATTGTTCTCCCAGCTGATGAATTCGGATCGTCGAGTAAACAAATTTTCCTAATCTTTCTGTTCAAGCGCCATCTAC,0.863 RPM ratio (pull-down/input)
15,GATGATTGTTCTCCCAGCTGATGAATTGACCGTATCGAGTAAACAAATTTTCCTAATCTTTCTGTTCAAGCGCCATCTAC,0.983 RPM ratio (pull-down/input)
16,GATGATTGTTCTCCCAGCTGATGAATTGTAGGGCTCGAGTAAACAAATTTTCCTAATCTTTCTGTTCAAGCGCCATCTAC,0.867 RPM ratio (pull-down/input)
17,GATGATTGTTCTCCCAGCTGATGAATTAGCTGATTCGAGTAAACAAATTTTCCTAATCTTTCTGTTCAAGCGCCATCTAC,0.855 RPM ratio (pull-down/input)
18,GATGATTGTTCTCCCAGCTGATGAATTTTGCGCATCGAGTAAACAAATTTTCCTAATCTTTCTGTTCAAGCGCCATCTAC,1.28 RPM ratio (pull-down/input)
19,GATGATTGTTCTCCCAGCTGATGAATTTACAGCATCGAGTAAACAAATTTTCCTAATCTTTCTGTTCAAGCGCCATCTAC,1.29 RPM ratio (pull-down/input)
20,GATGATTGTTCTCCCAGCTGATGAATTCAGCGAGTCGAGTAAACAAATTTTCCTAATCTTTCTGTTCAAGCGCCATCTAC,0.816 RPM ratio (pull-down/input)
21,GATGATTGTTCTCCCAGCTGATGAATTACGCGATTCGAGTAAACAAATTTTCCTAATCTTTCTGTTCAAGCGCCATCTAC,1.07 RPM ratio (pull-down/input)

row,Sequence,binding signal
1,GATGATTGTTCTCCCAGCTGATGAATTTCTCCCGTCGAGTAAACAAATTTTCCTAATCTTTCTGTTCAAGCGCCATCTAC,0.902 RPM ratio (pull-down/input)
2,GATGATTGTTCTCCCAGCTGATGAATTCAAAGTTTCGAGTAAACAAATTTTCCTAATCTTTCTGTTCAAGCGCCATCTAC,0.878 RPM ratio (pull-down/input)
3,GATGATTGTTCTCCCAGCTGATGAATTTCAAATCTCGAGTAAACAAATTTTCCTAATCTTTCTGTTCAAGCGCCATCTAC,0.766 RPM ratio (pull-down/input)
4,GATGATTGTTCTCCCAGCTGATGAATTCTAGTGGTCGAGTAAACAAATTTTCCTAATCTTTCTGTTCAAGCGCCATCTAC,0.86 RPM ratio (pull-down/input)
5,GATGATTGTTCTCCCAGCTGATGAATTAAGTTTGTCGAGTAAACAAATTTTCCTAATCTTTCTGTTCAAGCGCCATCTAC,1.37 RPM ratio (pull-down/input)
6,GATGATTGTTCTCCCAGCTGATGAATTCTATATTTCGAGTAAACAAATTTTCCTAATCTTTCTGTTCAAGCGCCATCTAC,1.09 RPM ratio (pull-down/input)
7,GATGATTGTTCTCCCAGCTGATGAATTGCCGCCTTCGAGTAAACAAATTTTCCTAATCTTTCTGTTCAAGCGCCATCTAC,0.995 RPM ratio (pull-down/input)
8,GATGATTGTTCTCCCAGCTGATGAATTCCTCAAGTCGAGTAAACAAATTTTCCTAATCTTTCTGTTCAAGCGCCATCTAC,0.819 RPM ratio (pull-down/input)
9,GATGATTGTTCTCCCAGCTGATGAATTAGCTAAATCGAGTAAACAAATTTTCCTAATCTTTCTGTTCAAGCGCCATCTAC,1.06 RPM ratio (pull-down/input)
10,GATGATTGTTCTCCCAGCTGATGAATTGCGACCCTCGAGTAAACAAATTTTCCTAATCTTTCTGTTCAAGCGCCATCTAC,1.01 RPM ratio (pull-down/input)
11,GATGATTGTTCTCCCAGCTGATGAATTGCTAATGTCGAGTAAACAAATTTTCCTAATCTTTCTGTTCAAGCGCCATCTAC,1.3 RPM ratio (pull-down/input)
12,GATGATTGTTCTCCCAGCTGATGAATTGGGAATATCGAGTAAACAAATTTTCCTAATCTTTCTGTTCAAGCGCCATCTAC,1.01 RPM ratio (pull-down/input)
13,GATGATTGTTCTCCCAGCTGATGAATTCAGCCTCTCGAGTAAACAAATTTTCCTAATCTTTCTGTTCAAGCGCCATCTAC,0.878 RPM ratio (pull-down/input)
14,GATGATTGTTCTCCCAGCTGATGAATTAACTATTTCGAGTAAACAAATTTTCCTAATCTTTCTGTTCAAGCGCCATCTAC,0.947 RPM ratio (pull-down/input)
15,GATGATTGTTCTCCCAGCTGATGAATTATTTTAGTCGAGTAAACAAATTTTCCTAATCTTTCTGTTCAAGCGCCATCTAC,1.21 RPM ratio (pull-down/input)
16,GATGATTGTTCTCCCAGCTGATGAATTTGCCGATTCGAGTAAACAAATTTTCCTAATCTTTCTGTTCAAGCGCCATCTAC,0.855 RPM ratio (pull-down/input)
17,GATGATTGTTCTCCCAGCTGATGAATTTGCCTTTTCGAGTAAACAAATTTTCCTAATCTTTCTGTTCAAGCGCCATCTAC,1.14 RPM ratio (pull-down/input)
18,GATGATTGTTCTCCCAGCTGATGAATTCTCGGTTTCGAGTAAACAAATTTTCCTAATCTTTCTGTTCAAGCGCCATCTAC,0.833 RPM ratio (pull-down/input)
19,GATGATTGTTCTCCCAGCTGATGAATTGAGCTGTTCGAGTAAACAAATTTTCCTAATCTTTCTGTTCAAGCGCCATCTAC,0.884 RPM ratio (pull-down/input)
20,GATGATTGTTCTCCCAGCTGATGAATTTGTCTATTCGAGTAAACAAATTTTCCTAATCTTTCTGTTCAAGCGCCATCTAC,1.28 RPM ratio (pull-down/input)
21,GATGATTGTTCTCCCAGCTGATGAATTTAAACAATCGAGTAAACAAATTTTCCTAATCTTTCTGTTCAAGCGCCATCTAC,1.66 RPM ratio (pull-down/input)
